Laboratory results as given in ChEMBL document CHEMBL4888484, “Replenishing the malaria drug discovery pipeline: Screening and hit evaluation of the MMV Hit Generation Library 1 (HGL1) against asexual blood stage Plasmodium falciparum ,using a nano luciferase reporter read-out” (2022).
About 540 (0.36%) of roughly 150,000 compounds showed an effect of 50% or more. The list shows a part of the results.

These compounds were tested on Plasmodium falciparum (assay: Primary screen in NF54 nanoGlo assay, in single point, at 2uM, 72h; a lower Z score goes with more inhibition). Details: timepoint 72 hour.
Assay type: functional, Erythrocyte

Compound | % Inhibition [%] | Z score
O=C(Nc1ccc(N2CCOCC2)cc1)C(C1CC=CCC1)N(Cc1cccnc1)C(=O)Cn1nnc2ccccc21 (stereo not given) | 35 | -3.99
CN(CCC[C@H]1CCCO1)CCn1cnc2ccccc21 | -26 | 2.83
O=C(N[C@H]1CCN(c2ccc(C(F)(F)F)cn2)C1)c1cnccn1 | -12 | 2.32
Cc1nc(CNC(=O)[C@H]2CCC(=O)N(Cc3ccccn3)C2)sc1C | 12 | -2.02
COC(=O)[C@@H]1C[C@H](O)CCN1Cc1ccccc1C#Cc1ccccc1 | -1 | 0.12
Cc1ccncc1NC(=O)[C@@]1(C)CC1(Cl)Cl | -12 | 1.61
O=C(CCC(=O)N1CCCCCC1)NCC[C@H]1CCCOC1 | -13 | 1.48
CCc1cc(NC2CCOC3(CCOC3)C2)nc(C)n1 (stereo not given) | -6 | 1.2
COC(=O)C1CC(Oc2ccccc2F)CN1C(=O)NC(C)(C)C (stereo not given) | -3 | 0.52
O=C(NCCc1ccc(Cl)cc1)c1ccc(Cn2c(=O)c3ccccc3n(Cc3ccccc3Cl)c2=O)cc1 | -2 | 0.32
COc1cccc(-c2nccn2[C@H]2CCc3[nH]ncc3C2)c1OC | -13 | 1.56
O=C1CC[C@H](C(=O)N2CC=C(c3ccc(Cl)cc3)CC2)CN1 | -5 | 0.9
O=C(NCc1ccc2c(c1)OCO2)c1cc(-c2ccc(F)cc2)ns1 | -5 | 0.6
N#Cc1ccc(C(=O)Nc2ccc3n(c2=O)C[C@H]2C[C@@H]3CN(C(=O)c3ccccn3)C2)cc1 | -4 | 0.44
Cc1nc(-c2ccco2)ccc1C(=O)N1CCN(CCO)CC1 | -3 | 0.35
O=C(NCCN1CCCC1)C1CCN(c2cnc(N3CCCC3)nc2)CC1 | -16 | 1.81
CCC(C)(C)CNCC1CCOC1c1c(C)nn(C)c1C (stereo not given) | 24 | -2.74
CC(NCC1CCN(S(C)(=O)=O)C1)c1ccsc1 (stereo not given) | -10 | 1.34
O=C(O)[C@@H]1CCCCN1Cc1ccsc1Cl | -1 | 0.18
COc1ccc(CN2CCNC(=O)[C@@H]2CC(=O)NCc2ccc3c(c2)CCN3C)c(C)c1C | -5 | 0.78
Cc1cccc([C@H](C)NC(=O)COC(C)C)n1 | -17 | 1.72
CCCC[C@@]1(O)COC2(CN(C(=O)c3ccn(CC)n3)C2)C1 | -4 | 0.61

Compound | % Inhibition [%] | Z score
CCN(CC)c1ncc2c(n1)CC[C@H](C(=O)NCCC1CCN(C)CC1)C2 | 12 | -2.21
O=C(COC[C@H]1CCCO1)Nc1nccc(-c2cncc(F)c2)n1 | 3 | -0.63
COc1ccc(-c2cc(NC(=O)c3cc(-c4ccccc4)on3)n([C@H]3CCS(=O)(=O)C3)n2)cc1OC | -6 | 0.74
CCOc1cccc2c1OCC(=O)N(c1ccc(F)cc1C)C2 | -11 | 1.24
O=C(Cc1ccsc1)NCc1cccnc1Oc1ccccc1 | 29 | -3.27
Cc1cc(C)nc(CCNC(=O)[C@H]2CC(=O)N(C)C2(C)C)n1 | -3 | 0.4
Cc1cccc(C[C@@H](CNC(=O)c2ccncc2)C(=O)O)c1 | 1 | -0.06
CC(C)CC(=O)Nc1nc(C(=O)NCc2ccncc2)cs1 | -1 | 0.18
CN1C(=O)c2ccc(NC(=O)C3CCC3)cc2C1=O | 7 | -1.01
Cc1n[nH]c(C2CN(C(C)C(=O)Nc3ncc(C)s3)CCO2)n1 (stereo not given) | -1 | 0.18
COc1ccc(C)cc1NC(=O)CC1CCN(S(=O)(=O)c2ccc3c(c2)CCN3C(C)=O)CC1 | -4 | 0.38
C[C@H]1CN(CC(=O)N(CCC#N)Cc2ccco2)CCO1 | -4 | 0.55
Cc1cc(C)cc(NC(=O)CCc2ccc(S(=O)(=O)N3CCCC3)cc2)c1 | -1 | 0.26
Cc1noc2ncnc(NC[C@](C)(O)c3cccc(F)c3)c12 | -7 | 1.41
COc1ccc(OC)c(NC(=O)c2cc(C)nc3onc(-c4ccc(F)cc4)c23)c1 | 3 | -0.39
CC(C)(C)N1CC[C@H]1C(=O)N[C@H]1CC[C@@H](CO)CC1 | 15 | -1.99
Brc1cccc(-c2ccc(-c3cc(-c4ccccc4)nnc3-c3ccccc3)o2)c1 | 41 | -6.11
COc1ccc(-c2ccc(N(C)C)nc2)c(OC)c1OC | -15 | 2.54
CCN(CC)S(=O)(=O)c1cc(C)c(C)c(NCc2ccon2)c1 | 23 | -2.48
O=C(Nc1ccc(-c2cc[nH]n2)cc1)c1ccc[nH]c1=O | -11 | 1.41
COCC1(C(=O)N2CC[C@@H]3OCc4cccc(c4)Oc4cc(ccc4OC)CCC(=O)N[C@@H]3C2)CCC1 | -15 | 1.68
O=C(CN1c2ccccc2S(=O)(=O)c2ccccc21)NC1CCCCCC1 | -14 | 1.51

Compound | % Inhibition [%] | Z score
COc1cc(NC(=O)C(=O)c2ccc(C)cc2)c(C(=O)N2CCCCC2)cc1OC | -6 | 1.07
Cc1nnc(CN(C)C(=O)c2cncc(Cl)c2)o1 | -2 | 0.28
CCCN(CCc1ccccn1)c1nccn(C)c1=O | 9 | -1.69
O=C(c1nccc2ccccc12)N1CC[C@H](c2c(F)cccc2F)C1 | -1 | 0.11
COc1cccnc1-c1cccc(-c2ccn(CC(=O)Nc3cnccn3)n2)c1 | -11 | 1
O=C(Cc1ccc(Oc2nccc(C(F)(F)F)n2)cc1)NCCO | 33 | -0.75
Cc1nc(CN2CCO[C@H](c3cc(F)c(Cl)cc3Cl)C2)no1 | -17 | 2.62
O=C(NCCCn1ccnc1)c1c[nH]c(=O)n(Cc2ccc3c(c2)OCO3)c1=O | -9 | 1.54
C[C@@H](O)CNS(=O)(=O)c1c(Cl)cccc1C(F)(F)F | 1 | -0.17
O=C(CN[C@H](CO)c1ccccc1)NC1CCCC1 | -4 | 0.62
COCc1nc(C(=O)N2CCCc3cc(-c4ccccc4)ccc32)co1 | -8 | 1.08
Cc1cc2n(CCNC(=O)N3CCN(S(C)(=O)=O)C3=O)ccn2n1 | -2 | 0.36
CCc1cc(CC)c(NC(=O)N2CCOC[C@@H](CO)C2)c(CC)c1 | -4 | 0.87
CCCc1c(NC(=O)c2cc(C)no2)cnn1-c1cccc(C)c1 | -7 | 0.85
C/C=C/CC(=O)N1CCN(CCOC)[C@@H]2CS(=O)(=O)C[C@@H]21 | -13 | 1.67
CC(C)[C@H](Cn1nccn1)NC(=O)Cc1ccc(F)cc1 | -15 | 2.29
Cc1noc(C)c1C(=O)Cn1nnnc1C | 15 | -2.58
CCS(=O)(=O)N1CCC[C@H](C(=O)N(C)Cc2ccns2)C1 | 15 | -1.89
O=C(O)[C@H]1CCCN(Cc2ccc(-n3ccnc3)cc2)C1 | -12 | 1.56
CN(C(=O)c1csc(-c2ccco2)n1)c1ccccc1 | -3 | 0.5
O=C(Nc1ncc(Cc2ccccc2)s1)c1cc(S(=O)(=O)N2CCCCC2)ccc1Cl | -12 | 1.64
COc1cc(OC)cc(C(=O)N[C@@H](C)Cc2ccoc2)c1 | -1 | 0.21

Compound | % Inhibition [%] | Z score
Cc1ccccc1C(=O)N(Cc1cccc(F)c1)c1ccc(CC(=O)NCCN2CCCCC2)cc1 | 58 | -4.25
Cn1cc(C2CCN(C(=O)C3COc4ccccc4O3)C2)cn1 (stereo not given) | 4 | -0.63
Cc1ccccc1-c1noc(-c2cccnc2N(C)Cc2ccccc2)n1 | 2 | -0.35
CCC(=O)N1CCN(C(=O)c2cccnc2O)C1 | -7 | 1.32
CO[C@@H](C(=O)N1CCN(C2CCCCC2)C(=O)C1)c1ccccc1 | 5 | -0.98
CCOC(=O)CN(CC1CC1)C(=O)CCn1cc(C)cn1 | 4 | -0.51
O=c1n(Cc2ccc(F)cc2F)nc([C@H]2CCCNC2)n1-c1ccccc1 | 8 | -0.73
CCCN1CCN(C(=O)c2nc(N3CCOCC3)c3c(C)scc3n2)CC1 | -3 | 0.37
COc1ccc(CN[C@H](C)c2onc(C)c2C(=O)O)cc1 | -12 | 1.88
Cc1cc(F)ccc1C(=O)NC(C)C(C)C(=O)O (stereo not given) | -7 | 0.72
Cc1cc([C@H](C(=O)O)N(Cc2nccn2C)C2CC2)ccc1F | -3 | 0.46
Cc1cc(OC[C@@H](O)CNC(C)C)cc(C)c1Cl | -7 | 1.4
CCOC(=O)c1sc2nc(-c3ccc(C)c(C)c3)c(NCc3cccc(F)c3)n2c1C | -7 | 0.75
COc1ccc(-c2c(C)nn3c(=O)[nH]ncc23)c(OC)c1 | -3 | 0.56
CCCCNC(=O)Nc1cc(C)nn1CCO | -10 | 1.99
Cc1ccc(S(=O)(=O)NCc2cccc(C#N)c2)cc1N(C)C | -5 | 0.7
CCc1ccc(CNC(=O)c2c(O)c3cccnc3[nH]c2=O)cc1 | -4 | 0.52
CC[C@H](C)c1cc(C(=O)NCCn2cnnc2C)on1 | -9 | 1.47
COc1cccc(CN2CCC(c3ncc(C)n3[C@H](C)CO)CC2)n1 | -1 | 0.1
